Experimental data: the supplement of paper PMC3334620
Whole data set: some 33,000 sequences, median “E-score (-0.5 to 0.5)” near -0.016, cut for the highest 2% near 0.32. The list shows a part of the results.

These sequences were tested against T1, Stp1 (UniProt B3LFK1) (assay: PBM E-score (8-mer binding enrichment) (E-score (-0.5 to 0.5)); higher = stronger / more preferred TF binding; most listed sequences are background and not binding sites). Conditions: protein concentration: 200 nM; construct: GST-full length.
T1 sequence: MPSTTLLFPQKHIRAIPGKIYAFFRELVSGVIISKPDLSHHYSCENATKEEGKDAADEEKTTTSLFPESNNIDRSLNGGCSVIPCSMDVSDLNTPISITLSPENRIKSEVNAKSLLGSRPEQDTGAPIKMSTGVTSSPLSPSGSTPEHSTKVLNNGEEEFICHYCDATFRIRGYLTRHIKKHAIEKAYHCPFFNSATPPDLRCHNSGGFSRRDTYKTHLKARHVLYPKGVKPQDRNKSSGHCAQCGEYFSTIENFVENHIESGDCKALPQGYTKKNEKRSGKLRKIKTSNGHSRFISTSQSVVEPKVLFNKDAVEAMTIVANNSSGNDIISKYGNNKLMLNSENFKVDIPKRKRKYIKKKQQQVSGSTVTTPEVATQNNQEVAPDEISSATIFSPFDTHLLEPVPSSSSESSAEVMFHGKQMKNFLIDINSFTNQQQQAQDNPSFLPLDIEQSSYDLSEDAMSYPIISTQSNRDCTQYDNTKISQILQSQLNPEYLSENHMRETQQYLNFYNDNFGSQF
Method in brief: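 Yeast transcription factors carrying a GST tag, as full-length proteins or DNA-binding domains, were produced by PURExpress in vitro transcription/translation. About 100-200 nM protein was applied to universal all-10-mer Agilent arrays, double-stranded by primer extension on fresh or once-stripped slides. Bound protein was detected with fluorescent anti-GST, and scans were normalised with masliner. The Universal PBM Analysis Suite gave each ungapped eight-base word, pooled with its reverse complement, an E-score, a modified Wilcoxon-Mann-Whitney statistic.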

Row | Sequence | PBM E-score
1 | CCAGCATC | -0.178
2 | CATGAATC | -0.022
3 | CGCTTGTC | -0.238
4 | GAGACCGC | -0.138
5 | GTGCTGTA | -0.00597
6 | TCTGGTCA | -0.0173
7 | AACACTGC | -0.00296
8 | ACTACGGA | -0.0355
9 | ATTCAAGC | 0.0278
10 | ATCGGTAG | -0.0353
11 | ACCAGGGC | -0.19
12 | CAATCATA | 0.0533
13 | TAAGGGCA | 0.105
14 | CACCAAAA | 0.25
15 | AGGAGTGG | -0.216
16 | CACTAGGC | 0.003
17 | AGTCAGCC | -0.144
18 | CCAATGGC | -0.0859
19 | GATAAAAC | 0.192
20 | TACCCGGA | 0.113
21 | CCGAGTCA | -0.0324
22 | AATACCAT | 0.0597

Row | Sequence | PBM E-score
23 | GGAAGACA | 0.00926
24 | TAGTCATA | -0.222
25 | CATGTAAA | 0.179
26 | ACTATTAG | 0.0245
27 | AAAAGGTA | -0.0198
28 | ACTCCGAA | -0.104
29 | ATAAAGAA | 0.0754
30 | AATAACAA | 0.0296
31 | GAAGGCCA | -0.238
32 | CACTACTG | -0.0901
33 | TCGTACAA | 0.157
34 | AAGAAAAG | 0.0347
35 | CCAAGCCA | -0.0891
36 | CCAGCTCA | -0.18
37 | ACTTTGTC | 0.0794
38 | CACTACCG | -0.0825
39 | CCGGCTGA | 0.0569
40 | GGGGCGTA | -0.174
41 | ACAAGCCG | 0.183
42 | GAACACGA | -0.115
43 | AAGATAGT | 0.00721
44 | GGTTCAAC | -0.0646

Row | Sequence | PBM E-score
45 | GGTGCGAA | -0.129
46 | TCGACACA | 0.128
47 | ATAGAGTA | 0.177
48 | CAACGCGG | 0.157
49 | ACAGCCGC | 0.25
50 | ACCATTCA | -0.00954
51 | ATCTTATA | 0.168
52 | CCCAGATA | -0.174
53 | ATTGACCG | 0.147
54 | ACTCCTAA | -0.0987
55 | CTGGGTAA | -0.138
56 | ATAACATA | 0.153
57 | ACTGCGTA | -0.108
58 | CGCCCGAG | 0.0304
59 | TCCACTAA | 0.0237
60 | AAGGGCCA | -0.068
61 | CGCGCAAA | 0.198
62 | GCTGCATA | 0.155
63 | CTCATCAC | -0.0536
64 | GATCATGA | 0.0743
65 | CAAACAAA | 0.0264
66 | AAGGGAGA | -0.253

Row | Sequence | PBM E-score
67 | TGGCTACA | -0.0168
68 | CACCTTGC | -0.0534
69 | AGCGTCGA | -0.0232
70 | CAAACAGC | 0.0389
71 | GGTTGGAC | -0.209
72 | CGACGGTC | -0.258
73 | AAGTGCTA | -0.237
74 | ACCCCGAT | -0.189
75 | AGCTTTCA | -0.104
76 | AATGGCCA | -0.213
77 | AAGGTATC | 0.00886
78 | CTATGGTC | -0.0791
79 | CTGGCGTA | -0.266
80 | AATCCGCA | 0.135
81 | ACGCTTTC | -0.0887
82 | CTGGCATC | -0.164
83 | AGGGCCTA | -0.25
84 | AATGTGCT | 0.0814
85 | TCCGGTCA | -0.114
86 | AACACAAT | 0.0477
